Data: PubChem BioAssay AID488969 (Vanderbilt High Throughput Screening Facility, 2010)
The full ranking holds about 110,000 compounds; the median of “z-score” is about -0.1, and the highest 2% start at about 2. The list shows a part of the results.

Each molecule was assayed against Metabotropic glutamate receptor 8 (Rattus norvegicus) (UniProt P70579) (assay: mGluR8 Gi/Go-coupled signaling modulation – cell-based, rat, thallium flux, HTS, primary screen (AID 488969)). Conditions: HEK293 rat mGluR8, GIRK (G protein-gated inwardly rectifying potassium channel) thallium flux, FluoZin2; at 10 µM; stronger effect = higher value; submaximal glutamate (EC20) added with thallium.
Chain of UniProt P70579 (P70579 whole entry, looked up): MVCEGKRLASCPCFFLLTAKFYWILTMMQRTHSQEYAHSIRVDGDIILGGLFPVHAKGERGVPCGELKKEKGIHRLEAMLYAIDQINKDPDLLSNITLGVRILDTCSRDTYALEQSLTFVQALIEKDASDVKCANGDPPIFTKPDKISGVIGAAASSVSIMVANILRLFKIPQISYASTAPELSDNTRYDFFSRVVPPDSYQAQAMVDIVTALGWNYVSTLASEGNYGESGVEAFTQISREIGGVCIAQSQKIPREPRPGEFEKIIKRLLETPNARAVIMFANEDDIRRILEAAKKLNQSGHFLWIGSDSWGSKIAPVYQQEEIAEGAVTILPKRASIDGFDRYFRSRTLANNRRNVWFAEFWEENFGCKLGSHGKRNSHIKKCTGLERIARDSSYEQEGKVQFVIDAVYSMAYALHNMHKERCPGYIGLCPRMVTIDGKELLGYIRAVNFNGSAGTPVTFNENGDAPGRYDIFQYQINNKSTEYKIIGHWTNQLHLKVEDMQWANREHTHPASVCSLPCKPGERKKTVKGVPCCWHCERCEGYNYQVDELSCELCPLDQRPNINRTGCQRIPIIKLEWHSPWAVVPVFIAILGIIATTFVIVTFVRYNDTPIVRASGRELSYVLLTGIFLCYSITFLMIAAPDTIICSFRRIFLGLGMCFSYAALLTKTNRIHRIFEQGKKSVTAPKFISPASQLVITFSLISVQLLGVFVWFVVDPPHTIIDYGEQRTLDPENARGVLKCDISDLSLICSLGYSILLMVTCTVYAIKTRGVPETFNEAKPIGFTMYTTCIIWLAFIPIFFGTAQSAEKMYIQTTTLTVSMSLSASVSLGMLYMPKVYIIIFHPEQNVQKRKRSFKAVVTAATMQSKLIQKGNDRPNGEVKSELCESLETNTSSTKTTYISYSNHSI
`Cc1cc(C(=O)OCC(=O)NCCC(C)C)c2ccccc2n1` showed a z-score of 0.0159. Work on `CC(C)(C)Oc1ncc(Br)c(OC(C)(C)C)n1` yielded a z-score of -0.0332. With `CC(C)Cn1c2ccccc2c2cc(C(=O)O)ccc21` the z-score was 0.449. For `CC(C)Cc1nc(S(=O)(=O)c2ccc(Cl)cc2)c(N2CCOCC2)o1`, the z-score was -0.0996. `Cc1nnc(NC(=O)C(C)Sc2nncn2C)s1` (stereo not drawn) gave a z-score of -0.533. In the case of `CN(CC(=O)Nc1ccc(Cl)c(Cl)c1)C(=O)/C=C/c1ccc(F)cc1`, the z-score is reported as -0.298. Molecule `CN(Cc1ccccc1)S(=O)(=O)c1cccs1` has a z-score of -0.244. `COC(=O)c1cc2n(n1)CCN(Cc1ccccc1Cl)C2=O` gave a z-score of -0.487. `CCOc1ccc(N2CC(C(=O)NCCCN3CCOCC3)CC2=O)cc1` (stereo not drawn) showed a z-score of -0.0255. `Cc1ccccc1NC(=O)CCC(=O)OCC(=O)c1ccc(-c2ccccc2)cc1` showed a z-score of 0.0456. For `COc1cc(C(=O)O/N=C2/C=C(C)C(=O)C=C2C)cc(OC)c1OC`, the z-score was -0.305. `CC(=O)c1cccc(N(C(=O)Cn2nnc3ccccc32)C(C(=O)NC2CCCCC2)c2cn(C)nc2C)c1` (stereo not drawn) gave a z-score of 0.459. `Cc1c(N=Cc2cc(Br)cc(Br)c2O)cccc1C(=O)O` gave a z-score of -0.81. Work on `CN1CCC/C1=C/C=C1\SC(=S)NC1=O` yielded a z-score of 2.4. Molecule `CN(C)S(=O)(=O)N(CC(=O)Nc1ccc2ccccc2c1)c1ccccc1` has a z-score of 1.91. Work on `Cc1ccc(C(=O)NCc2ccc(Cl)cc2)o1` yielded a z-score of 1.66. For `COc1ccc(N(CC(=O)Nc2cc(Cl)ccc2OC)S(=O)(=O)c2c(C)noc2C)cc1`, the z-score was -0.377. Work on `COc1ccc(OC)c(NC(=O)CSc2ncccc2C(=O)O)c1` yielded a z-score of -0.0307. `CC(C)CNS(=O)(=O)c1cc(C(=O)N2CC(C)OC(C)C2)c(Cl)cc1Cl` (stereo not drawn) gave a z-score of 0.133. `COc1ccccc1OCc1ccc(C(=O)NCc2ccco2)o1` gave a z-score of -0.38. `CC1(C)NC(=O)N(CC(O)CN2C(=O)NC(C)(C)C2=O)C1=O` showed a z-score of -1.24. `COc1cc(OC)cc(C(=O)Nc2cccc(C(C)=O)c2)c1` gave a z-score of -0.0192. Work on `CCN(CC)CCCN1C(=O)C(=O)/C(=C(/O)c2ccc3c(c2)OCO3)C1c1ccccn1` (stereo not drawn) yielded a z-score of -0.271. `COc1ccc(N(CC(=O)N2CCN(C)CC2)S(C)(=O)=O)cc1OC` showed a z-score of 0.943. `O=C(CN1CCc2ccccc21)NCc1ccccc1Cl` was tested, and the z-score was -0.54. For `O=C(Nc1nccs1)C1CC(=O)N(c2ccccc2Cl)C1` (stereo not drawn), the z-score was -0.00396. Molecule `O=C(NCc1ccc2c(c1)OCO2)C1CC(=O)N(CCc2ccccc2)C1` (stereo not drawn) has a z-score of -0.576. `CCCc1noc2c1C(c1ccoc1)C(C#N)=C(N)N2` (stereo not drawn) was tested, and the z-score was -1.74. Molecule `COc1ccc(OC)c2[nH]c(=O)c(CCNS(=O)(=O)c3ccc(C)cc3)cc12` has a z-score of -0.44. Molecule `Cc1ccc(/C(O)=C2\C(=O)C(=O)N(Cc3cccnc3)C2c2ccccc2[N+](=O)[O-])cc1` (stereo not drawn) has a z-score of -0.293. In the case of `CCOc1ccc(/C=N/NC(=O)C(C)Sc2ccccn2)cc1OCC` (stereo not drawn), the z-score is reported as -0.584. `CCCCCCOC(=O)c1ccc(OC(=O)c2cccnc2)cc1` showed a z-score of 0.019. Work on `O=[N+]([O-])c1c(NCCCO)cc(Sc2nc3ccccc3s2)c2nonc12` yielded a z-score of 1.13. `O=C(NC12CC3CC(CC(C3)C1)C2)N1CCC(O)CC1` gave a z-score of -0.182. In the case of `COc1ccc(CCNS(=O)(=O)c2cccc(C)c2)cc1OC`, the z-score is reported as -0.309. For `COc1cc(NC(=O)C2CCN(S(=O)(=O)c3ccc(Cl)cc3)CC2)ccc1-n1cnnn1`, the z-score was -0.131. In the case of `COc1ccc(C)cc1S(=O)(=O)N(CC(=O)Nc1cccc([N+](=O)[O-])c1)c1ccccc1`, the z-score is reported as -0.1. `CCn1c(Cn2nnc(-c3ccccc3)n2)nnc1SCC(=O)Nc1ccc(C(C)=O)cc1` showed a z-score of -0.345. Molecule `CC1CCCC(C)N1S(=O)(=O)c1ccc(NC(=O)c2ccccc2C(=O)N2CCOCC2)cc1` (stereo not drawn) has a z-score of 0.292. `COc1ccccc1/C=N/Nc1nncc2ccccc12` was tested, and the z-score was 0.0544. In the case of `COc1ccc(N=C2SC(CC(=O)Nc3ccccc3)C(=O)N2CC2CCCO2)cc1` (stereo not drawn), the z-score is reported as -0.432. For `CC(NC(=O)c1cccs1)C(c1cccs1)N1CCOCC1` (stereo not drawn), the z-score was -0.101. For `Nc1nc(Nc2ccc(Cl)cc2Cl)nc(C(F)(F)F)n1`, the z-score was 0.289. Molecule `CCOc1ccc(-n2nc3c(-n4ncc(C#N)c4N)nnc(C)c3c2C)cc1` has a z-score of -0.0191. `O=C(C[n+]1cccc(NC(=O)c2ccccc2)c1)c1ccccc1` gave a z-score of 0.023. In the case of `CCO/C=N/c1c(C#N)c2c(c(=S)n1C)COC(C)(C)C2`, the z-score is reported as -0.708. `COc1cc(/C=N\n2cnnc2)ccc1OCC(=O)Nc1ccc(C)cc1` was tested, and the z-score was 0.277. `Cc1oc2c(cc(NS(=O)(=O)c3cccs3)c3ccccc32)c1C(=O)OC(C)C` was tested, and the z-score was 0.372. `Cc1ccc(-c2nnc(Oc3ccc(NC(=O)c4ccccc4)cc3)c3ccccc23)cc1` was tested, and the z-score was -0.122. `O=C(Nc1cc(C(F)(F)F)ccc1N1CCOCC1)c1ccco1` was tested, and the z-score was 0.297. Work on `Cc1nn(C)c(C)c1CN(C)C(=O)c1nn2c(c1Br)NC(c1cccs1)CC2C(F)(F)F` (stereo not drawn) yielded a z-score of 2.24. `Cc1cc(NC(=O)CCN2CCC(C(N)=O)CC2)ccc1Br` showed a z-score of 0.255. With `Cc1ccc(OCC(=O)Nc2ccccc2Sc2ccc(Cl)cc2)c([N+](=O)[O-])n1` the z-score was -0.552. For `CCOC(=O)C1=C(C)NC(SCC(=O)OC)=C(C#N)C1c1ccc(C(=O)OC)cc1` (stereo not drawn), the z-score was 0.0233. Work on `Cc1nc2ccc(S(=O)(=O)NCC(=O)N3CCOCC3)cc2s1` yielded a z-score of -0.0788. Work on `COc1cccc(-c2cc(C(=O)Nc3cccnc3)no2)c1` yielded a z-score of 0.128. `CCC1CCCCN1S(=O)(=O)c1ccc(C(=O)Nc2nnc(-c3ccccc3Cl)o2)cc1` (stereo not drawn) showed a z-score of 1.12. Molecule `O=C1CSC(c2cn(-c3ccccc3)nc2-c2cc3ccccc3oc2=O)N1Cc1cccnc1` (stereo not drawn) has a z-score of 0.000712. Molecule `CC(=O)c1cccc(S(=O)(=O)N(Cc2cc3cc4c(cc3[nH]c2=O)OCCO4)CC2CCCO2)c1` (stereo not drawn) has a z-score of 0.32. For `CCOC(=O)c1sc(NC(=O)/C=C/c2cnn(CC)c2C)c(C(=O)OCC)c1C`, the z-score was -0.442. With `O=C(c1ccccc1)c1cccn1CC(=O)N1CCN(C2CCCCC2)CC1` the z-score was 0.102. In the case of `Cn1c(=O)cc(N2CCc3ccccc32)[nH]c1=O`, the z-score is reported as -0.292. In the case of `Cc1cccc(C)c1-n1c(C)cc(/C=N\Nc2ccc([N+](=O)[O-])cn2)c1C`, the z-score is reported as -0.113. In the case of `CSCCC(NC(=O)OCc1ccccc1)C(=O)O` (stereo not drawn), the z-score is reported as 0.475. `O=C(c1ccccc1)c1ccc(OC(=O)N2CCCC2)cc1` showed a z-score of -0.322. `Cc1ccc(CNC(=O)CN(C2CCCCC2)S(C)(=O)=O)cc1` was tested, and the z-score was -0.118. `O=c1c2cccnc2[nH]c(=S)n1CCCN1CCN(c2ccccc2F)CC1` gave a z-score of -0.417. `O=C(Nc1cnn(C23CC4CC(CC(C4)C2)C3)c1)c1cnn2c(C(F)(F)F)cc(-c3ccco3)nc12` showed a z-score of 0.0082.
